± gives the uncertainty stated by the source. In all, about 9,900 compounds were measured (“viability index relative to DMSO control”: median about 1, lowest 2% from about 0.85 on). The list shows a part of the results.
The compounds below were run on Plasmodium falciparum NF54 stage V gametocytes (assay: viability index relative to DMSO control (fraction); higher = less gametocyte killing). Conditions: 2.5 µM, library set: Broad Institute DOS, incubation time: 72 h.
How it was run: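 Viability index is the count of red-stained particles in a well divided by the plate mean of solvent-only wells. Particles of 20–70 µm2 were counted in one imaged field per well after one to two hours with 3 µl of 2.5 µM MitoTracker Red CMXRos and 0.13% saponin. Before staining, P. falciparum NF54 stage V gametocytes in serum-free medium (0.75% gametocytemia, 1.25% hematocrit, 10 µl, 1,536-well plates) were kept with compound at 2.5 µM for 72 hr at 37°C under low oxygen.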

Structure (SMILES)	viability index
COc1ccc2c3c([C@H](CO)N(C)C[C@]33CCN(CC3)C(=O)NC(C)C)n(C)c2c1	1.05 ± 0.057
COc1ccc(NC(=O)N(C)C[C@@H]2Oc3ccc(NC(=O)CCN4CCOCC4)cc3C(=O)N([C@H](C)CO)C[C@H]2C)cc1	1.02 ± 0.072
O=C(Nc1ccccc1F)N1CC(=O)N2[C@@H](CO)[C@@H](c3ccc(-c4cccnc4)cc3)[C@@H]2C1	1.113 ± 0.0028
COCC(=O)Nc1ccc2c(c1)C(=O)N(C)[C@H]1CC[C@@H](CC(=O)N3CCc4ccccc4C3)O[C@H]1CO2	0.961 ± 0.025
O=C(Cc1ccccn1)N1CC2(C1)[C@H](c1ccccc1)[C@H](CO)N2C(=O)c1ccncc1	1.08 ± 0.055
COc1ccc(C(=O)N2C[C@@H]3[C@H](c4ccccc42)[C@@H](CO)N3Cc2ccccc2Cl)cc1	1.01 ± 0.042
O=C(c1cccnc1)N1CC(=O)N2[C@H](C1)[C@@H](c1ccc(-c3ccccc3F)cc1)[C@@H]2CO	1.06 ± 0.032
CS(=O)(=O)Nc1ccc2c(c1)[C@@H]1C[C@H](CC(=O)NCCc3ccccc3)O[C@@H](CO)[C@@H]1O2	1.06 ± 0.12
CCN1CC(=O)N2[C@H](CO)[C@@H](c3ccc(Br)cc3)[C@@H]2C1	0.886 ± 0.052
Cc1cccc(S(=O)(=O)N2[C@@H]3CNC[C@H]2[C@@H]3c2ccc(-c3cncnc3)cc2)c1	1.0665 ± 0.00061
Cc1ccccc1-c1ccc([C@@H]2[C@H](CO)N3CCCCN(S(=O)(=O)Cc4ccccc4)C[C@@H]23)cc1	0.74 ± 0.039
N#C[C@H]1[C@@H](c2ccccc2C2=CCCCC2)[C@H](CO)N1S(=O)(=O)c1ccccc1	1.1 ± 0.17
CCCNC(=O)N1C[C@@H]2[C@H](c3ccccc31)[C@@H](CO)N2Cc1cccc(OC)c1	0.953 ± 0.02
C[C@@H]1CN([C@H](C)CO)C(=O)c2cc(NS(=O)(=O)c3cccs3)ccc2O[C@@H](C)CCCCO[C@H]1CN(C)Cc1ccc(Cl)c(Cl)c1	0.921 ± 0.047
Cc1ccc(S(=O)(=O)Nc2cccc3c2O[C@H](CN(C)C(=O)Nc2ccc(C(F)(F)F)cc2)[C@@H](C)CN([C@@H](C)CO)C3=O)cc1	1.06 ± 0.054
O=C(C[C@@H]1CC[C@@H]2[C@H](COC[C@H](O)CN2Cc2ccc(C(F)(F)F)cc2)O1)N1CCc2ccccc2C1	1.078 ± 0.0039
COC(=O)C[C@H]1CC[C@H]2[C@@H](COC[C@@H](O)CN2S(=O)(=O)c2cn(C)cn2)O1	1.07 ± 0.016
O=C(C[C@H]1CC[C@H]2[C@@H](COC[C@H](O)CN2S(=O)(=O)c2ccccc2)O1)NCC1CCCCC1	1.11 ± 0.076
CO[C@@H]1CN(C)C(=O)c2ccc(NC(C)=O)cc2OC[C@@H](C)N(C(=O)c2cnccn2)C[C@H]1C	1.09 ± 0.065
C/C=C/c1cnc2c(c1)C(=O)N([C@@H](C)CO)C[C@H](C)[C@@H](CN(C)CC1CCOCC1)O2	1.02 ± 0.037
C/C=C/c1ccc([C@@H]2[C@@H](CO)N(CCC(F)(F)F)C23CN(C(=O)CC2CC2)C3)cc1	0.951 ± 0.035
CN(C)CC(=O)N1CC2(C1)[C@H](c1ccccc1)[C@H](CO)N2S(C)(=O)=O	1.11 ± 0.033
CN1C(=O)c2cc(NS(=O)(=O)c3cccc(F)c3)ccc2OC[C@@H]2O[C@H](CC(=O)NCCN3CCCCC3)CC[C@H]21	0.941 ± 0.053

Structure (SMILES)	viability index
COc1ccccc1-c1cnc2c(c1)C(=O)N([C@H](C)CO)C[C@@H](C)[C@H](CN(C)C(=O)CC1CC1)O2	1.01 ± 0.03
COc1ccccc1-c1ccc([C@@H]2[C@H](C#N)N[C@H]2CO)cc1	1.1 ± 0.046
O=C(C[C@@H]1CC[C@H](NC(=O)CC2CC2)[C@H](CO)O1)NCC(F)(F)F	1.08 ± 0.051
COc1ccc2c3c([C@H](CO)NC[C@]33CN(Cc4ccc(cc4)-c4ccccn4)C3)n(C)c2c1	0.934 ± 0.11
CN(C)CC(=O)N1CC2(C1)[C@@H](c1ccccc1)[C@@H](CO)N2C(=O)C1CC1	0.96839 ± 0.00043
O=C(C[C@@H]1CC[C@@H]2[C@H](COC[C@@H](O)CN2CC2CCOCC2)O1)NCC1CCCCC1	0.974 ± 0.14
O=C(C[C@H]1CC[C@H]2[C@@H](COC[C@H](O)CN2C(=O)Nc2cccc(F)c2)O1)NCCCN1CCOCC1	1.0467 ± 0.00062
O=C1N[C@@H](c2ccccc2)COCc2cn(nn2)CC[C@@H]1Cc1ccc(C(F)(F)F)cc1	0.9942 ± 0.0042
CC(C)[C@@H]1C(=O)N[C@@H](c2ccc(F)cc2)C/C=C/C[C@@H](C)Oc2ccccc2C(=O)N1C.CC(C)[C@@H]1C(=O)N[C@@H](c2ccc(F)cc2)C/C=C\C[C@@H](C)Oc2ccccc2C(=O)N1C	1.05 ± 0.032
O=C(C[C@H]1CC[C@H]2[C@@H](COC[C@@H](O)CN2Cc2ccc3c(c2)OCO3)O1)N1CCCCC1	0.97 ± 0.11
O=C(C[C@@H]1C[C@H]2c3cc(NS(=O)(=O)c4ccc(F)cc4)ccc3O[C@H]2[C@H](CO)O1)N1CCc2ccccc2C1	1 ± 0.11
CCC(=O)N1CC2(C1)[C@@H](c1ccc(-c3cccc(C)c3)cc1)[C@@H](CO)N2S(C)(=O)=O	1.057 ± 0.0069
CC(C)NC(=O)N(C)C[C@H]1Oc2ccc(NC(=O)c3ccncc3)cc2C(=O)N([C@@H](C)CO)C[C@@H]1C	0.935 ± 0.024
O=C(C[C@@H]1CC[C@H]2[C@@H](COC[C@H](O)CN2CCC(F)(F)F)O1)NCC1CC1	1.02 ± 0.034
CCN(C[C@@H]1[C@@H](c2ccccc2)[C@H](CO)N1CC1CC1)C(=O)c1ccccn1	1.04 ± 0.032
COc1cccc(-c2ccccc2[C@@H]2[C@H](C#N)N(C(=O)Cc3ccccc3)[C@H]2CO)c1	0.996 ± 0.22
Cc1noc(C)c1NC(=O)Nc1ccc2c(c1)C(=O)N([C@@H](C)CO)C[C@H](C)[C@H](CN(C)S(=O)(=O)c1cccs1)OCCCC[C@H](C)O2	1.03 ± 0.045
COc1ccc(NC(=O)N2[C@@H]3CNC[C@H]2[C@H]3c2ccc(/C=C/c3ccccc3)cc2)cc1	1.05 ± 0.032
N#C[C@@H]1[C@@H](c2ccc(C3=CCCCC3)cc2)[C@@H](CO)N1S(=O)(=O)c1ccccc1	1.187 ± 0.0046
COCC(=O)N1C[C@@]2(C1)CN([C@H](CO)c1c2c2ccc(OC)cc2n1C)C(=O)NC1CCCC1	0.985 ± 0.084
O=C(c1ccccc1)N1CC(=O)N2[C@H](C1)[C@@H](c1ccc(-c3ccccc3)cc1)[C@@H]2CO	0.829 ± 0.051
CCS(=O)(=O)N1CCCCN2[C@H](CO)[C@H](c3ccc(C#Cc4ccccn4)cc3)[C@@H]2C1	1.01 ± 0.076
